Consider 19 molecules from the supplement of paper PMC10369915.

Some targets named below: SHP2 C-SH2 domain E139D; SHP2 N-SH2 domain L43F; SHP2 N-SH2 domain T42A; SHP2 N-SH2 domain T52S.
Common to all, as to experiment: enrichment score (SH2-bound / input frequency) (ratio); bacterial display of known human phosphotyrosine sites (pTyr-Var adds point mutants) read by sequencing; higher = stronger binding; tyrosines were phosphorylated by kinases first
Conditions in all cases: peptide library: pTyr-Var

Assay [1] deals with SHP2 C-SH2 domain wild-type.
The target in assay [2] is SHP2 N-SH2 domain wild-type.

The other results are listed elsewhere or left out. No stated cut-off is given here; in the data, active = 3.2 or more and inactive = the rest. Most of these values are background signal.
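Further: displayed peptides selected on beads carrying the immobilized SH2 domain, with library peptides lacking any tyrosine serving as negative controls.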

As to ISKILYHIIKG [CDH17_Y489_S484I], the enrichment score with SHP2 C-SH2 domain E139D was active: 5.71; in assay [1], active: 4.45; with SHP2 N-SH2 domain L43F it was active: 5.12; with SHP2 N-SH2 domain T42A it was active: 3.98; in the assay with SHP2 N-SH2 domain T52S, active: 4.56; in assay [2] it was active: 4.43.

EKQARYEIVVE [CDH5_Y223]: the enrichment score with SHP2 C-SH2 domain E139D was inactive: 0.772; in assay [1], inactive: 0.849; with SHP2 N-SH2 domain L43F, inactive: 0.645; with SHP2 N-SH2 domain T42A, inactive: 0.682; with SHP2 N-SH2 domain T52S, inactive: 0.951; in assay [2], inactive: 0.793.

For the molecule NGTVTYAIIAG [CDH23_Y1672_V1675I], the enrichment score with SHP2 C-SH2 domain E139D is inactive: 1.76; in assay [1], inactive: 2.91; in the assay with SHP2 N-SH2 domain L43F, inactive: 1.23; in the assay with SHP2 N-SH2 domain T42A, inactive: 3.07; in the assay with SHP2 N-SH2 domain T52S, inactive: 1.14; in assay [2], inactive: 1.09.

With RQRTAYFSLNT [CDH1_Y68_D72N], the enrichment score with SHP2 C-SH2 domain E139D was inactive: 1.15; in assay [1] it was inactive: 2.51; in the assay with SHP2 N-SH2 domain L43F, inactive: 0.851; in the assay with SHP2 N-SH2 domain T42A, inactive: 0.859; in the assay with SHP2 N-SH2 domain T52S, inactive: 0.673; in assay [2] it was inactive: 0.605.

For FRNKPYISWPS [CDC42BPB_Y1638_S1633Y_YF], the enrichment score with SHP2 C-SH2 domain E139D is active: 3.56; in assay [1], inactive: 2.74; with SHP2 N-SH2 domain L43F it was active: 3.8; with SHP2 N-SH2 domain T42A, active: 3.29; with SHP2 N-SH2 domain T52S it was active: 3.33; in assay [2], inactive: 2.82.

For PLLEFYWDIFT [CDAN1_Y713_R714W_YF], the enrichment score with SHP2 C-SH2 domain E139D was inactive: 0.953; in assay [1] it was inactive: 1.52; with SHP2 N-SH2 domain L43F it was inactive: 1.49; in the assay with SHP2 N-SH2 domain T42A it was inactive: 0.876; with SHP2 N-SH2 domain T52S, inactive: 1.03; in assay [2] it was inactive: 1.66.

Turning to AGQEDYDRLRP [CDC42_Y64], the enrichment score is inactive: 0.555 in the assay with SHP2 C-SH2 domain E139D; inactive: 0.494 in assay [1]; inactive: 0.57 with SHP2 N-SH2 domain L43F; inactive: 0.46 in the assay with SHP2 N-SH2 domain T42A; inactive: 0.532 with SHP2 N-SH2 domain T52S; inactive: 0.687 in assay [2].

On to RNDRVYQPLRD [CD3D_Y149_Q147R], for which the enrichment score with SHP2 C-SH2 domain E139D is inactive: 0.478; in assay [1] it was inactive: 0.546; in the assay with SHP2 N-SH2 domain L43F it was inactive: 0.593; with SHP2 N-SH2 domain T42A it was inactive: 0.494; with SHP2 N-SH2 domain T52S, inactive: 0.728; in assay [2], inactive: 0.575.

As for SLQFEYVHYGG [CDC14A_Y591_S589F], the enrichment score with SHP2 C-SH2 domain E139D is inactive: 0.757; in assay [1], inactive: 0.613; in the assay with SHP2 N-SH2 domain L43F, inactive: 0.66; with SHP2 N-SH2 domain T42A, inactive: 0.629; in the assay with SHP2 N-SH2 domain T52S, inactive: 0.525; in assay [2], inactive: 0.563.

As to RWHEGYRQTPK [CD44_Y412], the enrichment score with SHP2 C-SH2 domain E139D was inactive: 2.33; in assay [1] it was inactive: 1.67; in the assay with SHP2 N-SH2 domain L43F it was inactive: 2.47; with SHP2 N-SH2 domain T42A, inactive: 1.94; with SHP2 N-SH2 domain T52S it was inactive: 2.21; in assay [2], inactive: 1.75.

As to DGMADCSDPSF [CDC5L_Y459_Y459C_YF], the enrichment score in the assay with SHP2 C-SH2 domain E139D is inactive: 0.932; in assay [1], inactive: 0.593; with SHP2 N-SH2 domain L43F, inactive: 0.507; with SHP2 N-SH2 domain T42A it was inactive: 0.526; with SHP2 N-SH2 domain T52S, inactive: 0.601; in assay [2], inactive: 0.592.

Take EKQARYEIVEE [CDH5_Y223_V227E]: the enrichment score with SHP2 C-SH2 domain E139D was inactive: 0.807; in assay [1], inactive: 0.778; in the assay with SHP2 N-SH2 domain L43F, inactive: 0.638; with SHP2 N-SH2 domain T42A, inactive: 0.754; with SHP2 N-SH2 domain T52S, inactive: 0.728; in assay [2], inactive: 0.852.

Take GEHSIYCTVNN [CD55_Y266]: the enrichment score with SHP2 C-SH2 domain E139D is inactive: 1.09; in assay [1] it was inactive: 1.05; with SHP2 N-SH2 domain L43F it was inactive: 0.705; with SHP2 N-SH2 domain T42A it was inactive: 0.744; with SHP2 N-SH2 domain T52S, inactive: 0.736; in assay [2] it was inactive: 1.14.

On to RDHFGYRQSVT [CD55_Y245_YF], for which the enrichment score with SHP2 C-SH2 domain E139D is inactive: 0.952; in assay [1], inactive: 0.855; with SHP2 N-SH2 domain L43F, inactive: 0.925; in the assay with SHP2 N-SH2 domain T42A, inactive: 0.779; with SHP2 N-SH2 domain T52S it was inactive: 0.794; in assay [2], inactive: 1.

As to AAFNKYDQERF [CDC73_Y293_R292K_YF], the enrichment score with SHP2 C-SH2 domain E139D is inactive: 0.678; in assay [1], inactive: 0.608; with SHP2 N-SH2 domain L43F it was inactive: 0.49; with SHP2 N-SH2 domain T42A, inactive: 0.68; with SHP2 N-SH2 domain T52S, inactive: 0.433; in assay [2], inactive: 0.598.

In the case of PLLEFYRDIFT [CDAN1_Y713_YF], the enrichment score is inactive: 1.63 with SHP2 C-SH2 domain E139D; inactive: 1.28 in assay [1]; inactive: 1.78 with SHP2 N-SH2 domain L43F; inactive: 1.76 in the assay with SHP2 N-SH2 domain T42A; inactive: 1.5 with SHP2 N-SH2 domain T52S; inactive: 1.97 in assay [2].

FSDPSYVKQME [CDC5L_Y464_YF]: the enrichment score in the assay with SHP2 C-SH2 domain E139D is inactive: 0.519; in assay [1], inactive: 0.632; with SHP2 N-SH2 domain L43F, inactive: 0.517; with SHP2 N-SH2 domain T42A it was inactive: 0.585; with SHP2 N-SH2 domain T52S it was inactive: 0.491; in assay [2], inactive: 0.572.

In the case of PIPAAYNRYDQ [CDC73_Y290], the enrichment score with SHP2 C-SH2 domain E139D was inactive: 0.753; in assay [1], inactive: 0.683; with SHP2 N-SH2 domain L43F it was inactive: 0.778; with SHP2 N-SH2 domain T42A it was inactive: 0.714; with SHP2 N-SH2 domain T52S, inactive: 0.929; in assay [2], inactive: 0.834.

PAVGIYNDNIN [CDCP1_Y707]: the enrichment score with SHP2 C-SH2 domain E139D is inactive: 0.638; in assay [1], inactive: 0.502; in the assay with SHP2 N-SH2 domain L43F, inactive: 0.862; with SHP2 N-SH2 domain T42A, inactive: 0.801; with SHP2 N-SH2 domain T52S, inactive: 0.662; in assay [2], inactive: 0.62.
